These results are taken from paper PMC6212790.

The list shows a part of the results. At the low end of the ranking, values are background and their order means little.

For this assay, the target named is T1, GST-Rok-C97-191 (UniProt O34857).
T1 sequence: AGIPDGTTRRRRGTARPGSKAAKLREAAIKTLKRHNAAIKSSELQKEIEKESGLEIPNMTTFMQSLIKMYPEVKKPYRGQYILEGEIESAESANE
The experiment in a line: protein binding microarray.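 Note: rank score from −0.5 (least bound) to 0.5 (best bound).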 Particulars: Rok is a gene silencer of Bacillus subtilis; high values mean tight binding; most listed sequences are background and not binding sites; double strand, one strand shown.
GGACAGGA: the binding signal was -0.175 E-score.

For the sequence GATTGTCA, the binding signal was 0.0702 E-score.

In turn, TTAATTAA displayed a binding signal of 0.346 E-score.

As for GGTGTCCA, the binding signal was -0.331 E-score.

Sequence CCTAAAGC gave a binding signal of -0.145 E-score.

Take TCTGAGAA: the binding signal was -0.0868 E-score.

CGTGTACC: the binding signal was -0.206 E-score.

Turning to ACGACGAA, the binding signal was -0.0769 E-score.

The sequence TAACACTA returned a binding signal of 0.269 E-score.

GTCATACA: the binding signal came out at 0.0239 E-score.

CTTACGTA: the binding signal came to 0.0916 E-score.

Sequence ATCAATCC had a binding signal of -0.0371 E-score.

CAGAGTCG registered a binding signal of -0.19 E-score.

In the case of AATTGTCT, the binding signal worked out at 0.0485 E-score.

The sequence ACGCGATC came in with a binding signal of -0.103 E-score.

Sequence CCTCTACC gave a binding signal of -0.0233 E-score.

In turn, TATACGAA registered a binding signal of 0.197 E-score.

GTTCAGAA: the binding signal is -0.0778 E-score.

GAGCGGCC: the binding signal was -0.187 E-score.

Regarding AATCGGAA, the binding signal is -0.0181 E-score.

The sequence GTGACGGA yielded a binding signal of -0.0715 E-score.

Turning to AGCCACGG, the binding signal is -0.267 E-score.

In turn, CGGATAAA gave a binding signal of 0.173 E-score.

For TGTCGTAA, the binding signal was 0.182 E-score.

Sequence GCTAACAA registered a binding signal of 0.101 E-score.

As to ATGTCAGC, the binding signal is -0.0856 E-score.

CTTGACAA returned a binding signal of -0.0112 E-score.

In the case of GACATGGC, the binding signal was -0.0446 E-score.

On to ATTTCTAG, for which the binding signal was 0.366 E-score.

Take CTATATTA: the binding signal came out at 0.355 E-score.

CCTTTGAA displayed a binding signal of -0.193 E-score.

TCTCTTCA yielded a binding signal of -0.0311 E-score.

ATGCGTAC: the binding signal is -0.0945 E-score.

As to GGCGCAAA, the binding signal was found to be 0.151 E-score.

Sequence AGCGGAAT had a binding signal of -0.0353 E-score.

CAGTAAAC: the binding signal was 0.103 E-score.

With AACTTGGA, the binding signal was 0.0367 E-score.

As for CGGTTCAG, the binding signal was -0.174 E-score.

Sequence GACCACGC returned a binding signal of -0.0575 E-score.

AAGTGAGA returned a binding signal of 0.0509 E-score.

As for AGGTTCTC, the binding signal was -0.0318 E-score.

For TAGCGGAA, the binding signal worked out at 0.156 E-score.

Sequence AAGAAAAA showed a binding signal of 0.141 E-score.

TCAGCAAA showed a binding signal of -0.0845 E-score.

ACAGAGAT came in with a binding signal of 0.0146 E-score.

Take AATGGGGA: the binding signal is -0.0932 E-score.

In the case of GGACGATA, the binding signal is 0.0108 E-score.

Consider CATCTAGC, for which the binding signal was determined as 0.0525 E-score.

Sequence ACCTAAAG came in with a binding signal of 0.00616 E-score.

For CAAAACGA, the binding signal is -0.0675 E-score.

ACAACTGG yielded a binding signal of -0.136 E-score.

AACAGACC came in with a binding signal of -0.0573 E-score.

Sequence AGACCATC registered a binding signal of -0.00563 E-score.

The sequence ATTAGTAA gave a binding signal of 0.303 E-score.

As to CACTATTC, the binding signal came out at 0.0856 E-score.

ACATTGAA yielded a binding signal of -0.0181 E-score.

With GTAGCTGA, the binding signal is 0.279 E-score.

Sequence AGACTTCC registered a binding signal of -0.175 E-score.

AAAGATTA: the binding signal is 0.212 E-score.

Turning to AACATTCC, the binding signal was determined as 0.0616 E-score.

For CGAATCGC, the binding signal was -0.274 E-score.

For the sequence CTTGTAAA, the binding signal was determined as 0.216 E-score.

CACCGTAC came in with a binding signal of -0.0847 E-score.

GAAAAGAC gave a binding signal of 0.0797 E-score.

Sequence GCTAAAAC registered a binding signal of 0.0361 E-score.

As for TATCCTGA, the binding signal was determined as 0.0508 E-score.

Consider GCCACGTA, for which the binding signal is -0.0655 E-score.

Take GTCTCCAC: the binding signal is -0.228 E-score.

Sequence GATGTGTA came in with a binding signal of 0.153 E-score.

CCCTCACG had a binding signal of -0.00587 E-score.

Take AGACATGC: the binding signal is -0.017 E-score.

Sequence AGAAGTCT yielded a binding signal of 0.0901 E-score.

Sequence CAGATTCC registered a binding signal of -0.0974 E-score.

CAGAACCC: the binding signal is -0.295 E-score.

As for TCCGATCA, the binding signal was -0.143 E-score.

In the case of ACACCACT, the binding signal was -0.0509 E-score.

The sequence AAATTTCC had a binding signal of 0.0447 E-score.

On to CCAACCGA, for which the binding signal is -0.148 E-score.

CTAGTTCA yielded a binding signal of 0.0257 E-score.

TAGAAGAA showed a binding signal of 0.287 E-score.

Consider CGGTAGTA, for which the binding signal is 0.391 E-score.

With AGGCTTGG, the binding signal is -0.112 E-score.

As for CAAAAGTG, the binding signal was -0.157 E-score.

ACTCGCCC displayed a binding signal of -0.134 E-score.

Turning to CATCCCAG, the binding signal is -0.187 E-score.

AATAAAGT returned a binding signal of 0.0104 E-score.

CGGGACTA returned a binding signal of 0.0767 E-score.

Turning to GTGTTCTA, the binding signal was found to be 0.271 E-score.

In the case of ACCCACAC, the binding signal is -0.0658 E-score.

On to AACTAATG, for which the binding signal worked out at 0.238 E-score.

GCGATGTA showed a binding signal of 0.0921 E-score.

Turning to CTTCCGCC, the binding signal is -0.266 E-score.

As for AGGGGACA, the binding signal was -0.285 E-score.

Regarding ACGACTGC, the binding signal is -0.0373 E-score.

ATAGTGAG showed a binding signal of 0.267 E-score.

ATACACGG displayed a binding signal of 0.0221 E-score.

CGCGCTTC yielded a binding signal of -0.0967 E-score.

As to AGGGCGAC, the binding signal was -0.206 E-score.

With ACTCTCCA, the binding signal was -0.0154 E-score.

GGGACAAA: the binding signal is -0.132 E-score.

For CTCTCACA, the binding signal is -0.2 E-score.

CGGTGATC: the binding signal stood at 0.0294 E-score.

Turning to AGACGGAT, the binding signal was -0.131 E-score.

In turn, GCTCCAGA registered a binding signal of -0.211 E-score.

In the case of GAGTCCTA, the binding signal was -0.119 E-score.

For ACTTCTCG, the binding signal is -0.0289 E-score.

CTCAAGGC: the binding signal was -0.207 E-score.

Turning to TAATTACA, the binding signal was found to be 0.396 E-score.

GTACGGTA came in with a binding signal of 0.226 E-score.

For GATTATAC, the binding signal was 0.238 E-score.

Consider ATTCTGAA, for which the binding signal was 0.183 E-score.

In turn, GCCACAAA gave a binding signal of -0.122 E-score.

GGTTCTAC yielded a binding signal of 0.031 E-score.

Sequence GATCAACC yielded a binding signal of -0.104 E-score.

In the case of AACGACAG, the binding signal came to 0.0211 E-score.

As for GGATGCAC, the binding signal was -0.18 E-score.

Sequence ACTTGCCA showed a binding signal of 0.097 E-score.

Consider GATTGTAA, for which the binding signal was found to be 0.0411 E-score.

For the sequence ATGGCGCG, the binding signal is -0.0665 E-score.

GCCCGGCC: the binding signal was -0.332 E-score.

Sequence ATCCTTAC returned a binding signal of 0.0524 E-score.

As for ACATATCC, the binding signal was 0.228 E-score.

As to ACCACACA, the binding signal amounted to 0.118 E-score.

In turn, GGACCCCA came in with a binding signal of -0.285 E-score.

In turn, CATGGTCG gave a binding signal of -0.182 E-score.

Regarding ACGCCCGA, the binding signal is -0.0297 E-score.

In turn, GGAGAGCA returned a binding signal of -0.205 E-score.

As for CTCCTGAA, the binding signal is -0.115 E-score.

As to AATTTAAA, the binding signal was 0.115 E-score.

As to ACCTAGTC, the binding signal amounted to 0.148 E-score.

Consider ACGTCCAT, for which the binding signal was -0.266 E-score.

For CACATTAC, the binding signal stood at 0.0402 E-score.

CTGAAGTC came in with a binding signal of 0.113 E-score.

In the case of ACAGAAGA, the binding signal came to 0.105 E-score.

Regarding GATCCCCC, the binding signal was -0.301 E-score.

On to CATTTAAG, for which the binding signal was 0.00273 E-score.

Consider GCTACATA, for which the binding signal stood at 0.315 E-score.

Sequence AACGTCTA registered a binding signal of -0.0104 E-score.

On to CCAATAAA, for which the binding signal was 0.109 E-score.

With GTGTTACA, the binding signal was 0.168 E-score.

Take GCATCCGA: the binding signal was -0.207 E-score.

In turn, CACTGAGA registered a binding signal of 0.0515 E-score.

As to CCCTCCAG, the binding signal was -0.266 E-score.

In turn, CGGGTGGA registered a binding signal of -0.082 E-score.

On to ACAAAGAA, for which the binding signal turned out to be 0.0397 E-score.

AAATCAGT registered a binding signal of 0.0671 E-score.

CAAATTCA yielded a binding signal of 0.102 E-score.

As for GCAACGCC, the binding signal was -0.226 E-score.

As to GGAAAGCA, the binding signal is -0.22 E-score.

CCCATTGC had a binding signal of -0.29 E-score.

Take CGCTGGTA: the binding signal was determined as 0.0789 E-score.

Sequence TCGAGCCA yielded a binding signal of -0.141 E-score.

As for CGAGTAAC, the binding signal turned out to be 0.227 E-score.

Sequence AACACGGG came in with a binding signal of 0.088 E-score.

As to CAAGGGGG, the binding signal was -0.304 E-score.

Turning to TCGGTCAA, the binding signal is 0.044 E-score.

In turn, ATTCAGTA showed a binding signal of 0.13 E-score.

With CGAGATTC, the binding signal is 0.103 E-score.

ACTATGAA came in with a binding signal of 0.174 E-score.

Sequence ATACGGAT yielded a binding signal of 0.287 E-score.

As for CGAACTGC, the binding signal was -0.119 E-score.

In turn, AATGGCTA came in with a binding signal of -0.031 E-score.

The sequence GACGAAAC yielded a binding signal of 0.0146 E-score.

As for CGAACCTA, the binding signal turned out to be 0.0128 E-score.

For AAACTTCC, the binding signal is -0.0662 E-score.

Sequence CCGGCGAA yielded a binding signal of -0.131 E-score.

AATAAGGT came in with a binding signal of 0.106 E-score.

With ACCCCGTC, the binding signal was -0.244 E-score.

For the sequence CCCCTAAA, the binding signal was -0.0753 E-score.

Consider GGTGACGA, for which the binding signal is -0.132 E-score.

For the sequence GCAACATA, the binding signal worked out at 0.217 E-score.

Sequence ACCGGGTC returned a binding signal of -0.145 E-score.
